# Results: the supplement of paper PMC8728848
# This is one part of the list.
# B1: OVGAL11 (Ovis aries), AAF64320 (protein)
# chain: MDSLPNPYLQSVSLTVCYMVKIKANLLSAFGKNPELQVDFGTGTGQGGNIPFRFWYCDGMVVMNTFTDGSWQKEEKVLTDAFVPGQPFELQFLVLEKEYQVFVKNKPICQFAHRLPLQSVKMLDVRGDIVLTSVDTL
# Tests used:
# Assay in all cases: glycan array binding signal (z-score within array); higher = stronger binding
# Conditions in all cases: glycan notation: IUPAC condensed, linker removed
# [1] = biological target: Gal(b1-3)[Neu5Ac(a2-6)]GlcNAc(b1-4)Gal(b1-4)Glc
# In short: (§1)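 The binding signal is a Z-score computed within each array and averaged over linkers. Arrays of the same protein sequence at different concentrations or buffers were also averaged together. Data originate from 3228 arrays in the Consortium for Functional Glycomics database, kept only where the protein sequence was available.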
# [2] = biological target: Gal(b1-3)[Neu5Ac(b2-6)]GalNAc
# In short: as §1
# [3] = biological target: Gal(b1-3)[Neu5Ac(b2-6)]GlcNAc
# In short: as §1
# Gal(b1-4)Gal = biological target: Gal(b1-4)Gal
# In short: as §1
# [4] = biological target: Gal(b1-4)GalNAc(a1-3)[Fuc(a1-2)]Gal(b1-4)GlcNAc
# In short: as §1
# [5] = biological target: Gal(b1-4)GalNAc(b1-3)[Fuc(a1-2)]Gal(b1-4)GlcNAc
# In short: as §1
# Gal(b1-4)Glc = biological target: Gal(b1-4)Glc
# In short: as §1
# Gal(b1-4)Glc6S = biological target: Gal(b1-4)Glc6S
# In short: as §1
# Gal(b1-4)GlcNAc = biological target: Gal(b1-4)GlcNAc
# In short: as §1
# [6] = biological target: Gal(b1-4)GlcNAc(a1-6)Gal(b1-4)GlcNAc
# In short: as §1
# Gal(b1-4)GlcNAc(b1-2)Man = biological target: Gal(b1-4)GlcNAc(b1-2)Man
# In short: as §1
# [7] = biological target: Gal(b1-4)GlcNAc(b1-2)Man(a1-3)Man(b1-4)GlcNAc(b1-4)GlcNAc
# In short: as §1
# [8] = biological target: Gal(b1-4)GlcNAc(b1-2)Man(a1-3)[Gal(b1-4)GlcNAc(b1-2)Man(a1-6)]Man(b1-4)GlcNAc(b1-4)GlcNAc
# In short: as §1
# [9] = biological target: Gal(b1-4)GlcNAc(b1-2)Man(a1-3)[Gal(b1-4)GlcNAc(b1-2)Man(a1-6)]Man(b1-4)GlcNAc(b1-4)[Fuc(a1-6)]GlcNAc
# In short: as §1
# [10] = biological target: Gal(b1-4)GlcNAc(b1-2)Man(a1-3)[Gal(b1-4)GlcNAc(b1-2)Man(a1-6)][Gal(b1-4)GlcNAc(b1-4)]Man(b1-4)GlcNAc(b1-4)[Fuc(a1-6)]GlcNAc
# In short: as §1
# [11] = biological target: Gal(b1-4)GlcNAc(b1-2)Man(a1-3)[Gal(b1-4)GlcNAc(b1-2)Man(a1-6)][GlcNAc(b1-4)]Man(b1-4)GlcNAc(b1-4)[Fuc(a1-6)]GlcNAc
# In short: as §1
# [12] = biological target: Gal(b1-4)GlcNAc(b1-2)Man(a1-3)[GlcNAc(b1-2)Man(a1-6)]Man(b1-4)GlcNAc(b1-4)GlcNAc
# In short: as §1
# [13] = biological target: Gal(b1-4)GlcNAc(b1-2)Man(a1-3)[GlcNAc(b1-4)][Gal(b1-4)GlcNAc(b1-2)Man(a1-6)]Man(b1-4)GlcNAc(b1-4)GlcNAc
# In short: as §1
# [14] = biological target: Gal(b1-4)GlcNAc(b1-2)Man(a1-3)[Man(a1-6)]Man(b1-4)GlcNAc(b1-4)GlcNAc
# In short: as §1
# [15] = biological target: Gal(b1-4)GlcNAc(b1-2)Man(a1-6)Man(b1-4)GlcNAc(b1-4)GlcNAc
# In short: as §1
# [16] = biological target: Gal(b1-4)GlcNAc(b1-2)Man(a1-6)[GlcNAc(b1-2)Man(a1-3)]Man(b1-4)GlcNAc(b1-4)GlcNAc
# In short: as §1
# [17] = biological target: Gal(b1-4)GlcNAc(b1-2)Man(a1-6)[Man(a1-3)]Man(b1-4)GlcNAc(b1-4)GlcNAc
# In short: as §1
# [18] = biological target: Gal(b1-4)GlcNAc(b1-2)[Gal(b1-4)GlcNAc(b1-4)]Man(a1-3)[Gal(b1-4)GlcNAc(b1-2)Man(a1-6)]Man(b1-4)GlcNAc(b1-4)GlcNAc
# In short: as §1
# [19] = biological target: Gal(b1-4)GlcNAc(b1-2)[Gal(b1-4)GlcNAc(b1-4)]Man(a1-3)[Gal(b1-4)GlcNAc(b1-2)[Gal(b1-4)GlcNAc(b1-6)]Man(a1-6)]Man(b1-4)GlcNAc(b1-4)GlcNAc
# In short: as §1
# [20] = biological target: Gal(b1-4)GlcNAc(b1-2)[Gal(b1-4)GlcNAc(b1-4)]Man(a1-3)[GlcNAc(b1-4)][Gal(b1-4)GlcNAc(b1-2)Man(a1-6)]Man(b1-4)GlcNAc(b1-4)GlcNAc
# In short: as §1
# [21] = biological target: Gal(b1-4)GlcNAc(b1-2)[Gal(b1-4)GlcNAc(b1-4)]Man(a1-3)[GlcNAc(b1-4)][Gal(b1-4)GlcNAc(b1-2)[Gal(b1-4)GlcNAc(b1-6)]Man(a1-6)]Man(b1-4)GlcNAc(b1-4)GlcNAc
# In short: as §1
# [22] = biological target: Gal(b1-4)GlcNAc(b1-2)[Gal(b1-4)GlcNAc(b1-6)]Man(a1-6)[Gal(b1-4)GlcNAc(b1-2)Man(a1-3)]Man(b1-4)GlcNAc(b1-4)GlcNAc
# In short: as §1
# [23] = biological target: Gal(b1-4)GlcNAc(b1-2)[Gal(b1-4)GlcNAc(b1-6)]Man(a1-6)[Gal(b1-4)GlcNAc(b1-2)Man(a1-3)]Man(b1-4)GlcNAc(b1-4)[Fuc(a1-6)]GlcNAc
# In short: as §1
# [24] = biological target: Gal(b1-4)GlcNAc(b1-2)[Gal(b1-4)GlcNAc(b1-6)]Man(a1-6)[GlcNAc(b1-4)][Gal(b1-4)GlcNAc(b1-2)Man(a1-3)]Man(b1-4)GlcNAc(b1-4)GlcNAc
# In short: as §1
# [25] = biological target: Gal(b1-4)GlcNAc(b1-2)[Gal(b1-4)GlcNAc(b1-6)]Man(a1-6)[GlcNAc(b1-4)][Gal(b1-4)GlcNAc(b1-2)[Gal(b1-4)GlcNAc(b1-4)]Man(a1-3)]Man(b1-4)GlcNAc(b1-4)[Fuc(a1-6)]GlcNAc
# In short: as §1
# [26] = biological target: Gal(b1-4)GlcNAc(b1-3)Gal(b1-3)GalNAc
# In short: as §1
# [27] = biological target: Gal(b1-4)GlcNAc(b1-3)Gal(b1-3)GlcNAc
# In short: as §1
# [28] = biological target: Gal(b1-4)GlcNAc(b1-3)Gal(b1-4)Glc
# In short: as §1
# [29] = biological target: Gal(b1-4)GlcNAc(b1-3)Gal(b1-4)GlcNAc
# In short: as §1
# [30] = biological target: Gal(b1-4)GlcNAc(b1-3)Gal(b1-4)GlcNAc(b1-2)Man(a1-3)[Gal(b1-4)GlcNAc(b1-3)Gal(b1-4)GlcNAc(b1-2)Man(a1-6)]Man(b1-4)GlcNAc(b1-4)GlcNAc
# In short: as §1
# [31] = biological target: Gal(b1-4)GlcNAc(b1-3)Gal(b1-4)GlcNAc(b1-2)Man(a1-3)[Gal(b1-4)GlcNAc(b1-3)Gal(b1-4)GlcNAc(b1-2)Man(a1-6)]Man(b1-4)GlcNAc(b1-4)[Fuc(a1-6)]GlcNAc
# In short: as §1
# [32] = biological target: Gal(b1-4)GlcNAc(b1-3)Gal(b1-4)GlcNAc(b1-2)[Gal(b1-4)GlcNAc(b1-3)Gal(b1-4)GlcNAc(b1-6)]Man(a1-6)[Gal(b1-4)GlcNAc(b1-3)Gal(b1-4)GlcNAc(b1-2)Man(a1-3)]Man(b1-4)GlcNAc(b1-4)GlcNAc
# In short: as §1
# [33] = biological target: Gal(b1-4)GlcNAc(b1-3)Gal(b1-4)GlcNAc(b1-2)[Gal(b1-4)GlcNAc(b1-3)Gal(b1-4)GlcNAc(b1-6)]Man(a1-6)[Gal(b1-4)GlcNAc(b1-3)Gal(b1-4)GlcNAc(b1-2)Man(a1-3)]Man(b1-4)GlcNAc(b1-4)[Fuc(a1-6)]GlcNAc
# In short: as §1
# [34] = biological target: Gal(b1-4)GlcNAc(b1-3)Gal(b1-4)GlcNAc(b1-3)Gal(b1-4)GlcNAc
# In short: as §1
# [35] = biological target: Gal(b1-4)GlcNAc(b1-3)Gal(b1-4)GlcNAc(b1-3)Gal(b1-4)GlcNAc(b1-2)Man(a1-3)[Gal(b1-4)GlcNAc(b1-3)Gal(b1-4)GlcNAc(b1-3)Gal(b1-4)GlcNAc(b1-2)Man(a1-6)]Man(b1-4)GlcNAc(b1-4)GlcNAc
# In short: as §1
# [36] = biological target: Gal(b1-4)GlcNAc(b1-3)Gal(b1-4)GlcNAc(b1-3)Gal(b1-4)GlcNAc(b1-2)Man(a1-3)[Gal(b1-4)GlcNAc(b1-3)Gal(b1-4)GlcNAc(b1-3)Gal(b1-4)GlcNAc(b1-2)Man(a1-6)]Man(b1-4)GlcNAc(b1-4)[Fuc(a1-6)]GlcNAc
# In short: as §1
# [37] = biological target: Gal(b1-4)GlcNAc(b1-3)Gal(b1-4)GlcNAc(b1-3)Gal(b1-4)GlcNAc(b1-2)[Gal(b1-4)GlcNAc(b1-3)Gal(b1-4)GlcNAc(b1-3)Gal(b1-4)GlcNAc(b1-6)]Man(a1-6)[Gal(b1-4)GlcNAc(b1-3)Gal(b1-4)GlcNAc(b1-3)Gal(b1-4)GlcNAc(b1-2)Man(a1-3)]Man(b1-4)GlcNAc(b1-4)[Fuc(a1-6)]GlcNAc
# In short: as §1
# [38] = biological target: Gal(b1-4)GlcNAc(b1-3)Gal(b1-4)GlcNAc(b1-3)Gal(b1-4)GlcNAc(b1-3)Gal(b1-4)GlcNAc(b1-2)Man(a1-3)[Gal(b1-4)GlcNAc(b1-3)Gal(b1-4)GlcNAc(b1-3)Gal(b1-4)GlcNAc(b1-3)Gal(b1-4)GlcNAc(b1-2)Man(a1-6)]Man(b1-4)GlcNAc(b1-4)GlcNAc
# In short: as §1
# [39] = biological target: Gal(b1-4)GlcNAc(b1-3)Gal(b1-4)GlcNAc(b1-3)Gal(b1-4)GlcNAc(b1-3)Gal(b1-4)GlcNAc(b1-2)Man(a1-3)[Gal(b1-4)GlcNAc(b1-3)Gal(b1-4)GlcNAc(b1-3)Gal(b1-4)GlcNAc(b1-3)Gal(b1-4)GlcNAc(b1-2)Man(a1-6)]Man(b1-4)GlcNAc(b1-4)[Fuc(a1-6)]GlcNAc
# In short: as §1
# [40] = biological target: Gal(b1-4)GlcNAc(b1-3)Gal(b1-4)GlcNAc(b1-3)Gal(b1-4)GlcNAc(b1-3)Gal(b1-4)GlcNAc(b1-2)[Gal(b1-4)GlcNAc(b1-3)Gal(b1-4)GlcNAc(b1-3)Gal(b1-4)GlcNAc(b1-3)Gal(b1-4)GlcNAc(b1-6)]Man(a1-6)[Gal(b1-4)GlcNAc(b1-3)Gal(b1-4)GlcNAc(b1-3)Gal(b1-4)GlcNAc(b1-3)Gal(b1-4)GlcNAc(b1-2)Man(a1-3)]Man(b1-4)GlcNAc(b1-4)[Fuc(a1-6)]GlcNAc
# In short: as §1
binder,measurement,setting,value
B1,glycan array binding signal (z-score),[1],-0.08
same,glycan array binding signal (z-score),[2],-0.098
same,glycan array binding signal (z-score),[3],-0.253
same,glycan array binding signal (z-score),Gal(b1-4)Gal,-0.059
same,glycan array binding signal (z-score),[4],-0.339
same,glycan array binding signal (z-score),[5],-0.056
same,glycan array binding signal (z-score),Gal(b1-4)Glc,-0.271
same,glycan array binding signal (z-score),Gal(b1-4)Glc6S,-0.046
same,glycan array binding signal (z-score),Gal(b1-4)GlcNAc,-0.07
same,glycan array binding signal (z-score),[6],-0.084
same,glycan array binding signal (z-score),Gal(b1-4)GlcNAc(b1-2)Man,-0.12
same,glycan array binding signal (z-score),[7],-0.101
same,glycan array binding signal (z-score),[8],-0.186
same,glycan array binding signal (z-score),[9],-0.113
same,glycan array binding signal (z-score),[10],-0.011
same,glycan array binding signal (z-score),[11],-0.081
same,glycan array binding signal (z-score),[12],-0.058
same,glycan array binding signal (z-score),[13],-0.112
same,glycan array binding signal (z-score),[14],-0.086
same,glycan array binding signal (z-score),[15],-0.102
same,glycan array binding signal (z-score),[16],-0.094
same,glycan array binding signal (z-score),[17],-0.045
same,glycan array binding signal (z-score),[18],-0.109
same,glycan array binding signal (z-score),[19],-0.093
same,glycan array binding signal (z-score),[20],-0.113
same,glycan array binding signal (z-score),[21],-0.051
same,glycan array binding signal (z-score),[22],-0.065
same,glycan array binding signal (z-score),[23],-0.063
same,glycan array binding signal (z-score),[24],-0.095
same,glycan array binding signal (z-score),[25],-0.113
same,glycan array binding signal (z-score),[26],-0.055
same,glycan array binding signal (z-score),[27],-0.077
same,glycan array binding signal (z-score),[28],-0.027
same,glycan array binding signal (z-score),[29],-0.142
same,glycan array binding signal (z-score),[30],0.016
same,glycan array binding signal (z-score),[31],-0.075
same,glycan array binding signal (z-score),[32],-0.104
same,glycan array binding signal (z-score),[33],-0.02
same,glycan array binding signal (z-score),[34],0.339
same,glycan array binding signal (z-score),[35],0.029
same,glycan array binding signal (z-score),[36],-0.014
same,glycan array binding signal (z-score),[37],0.01
same,glycan array binding signal (z-score),[38],-0.037
same,glycan array binding signal (z-score),[39],-0.037
same,glycan array binding signal (z-score),[40],-0.023
